Data from publication PMC6919601, “Identification of Plasmodium dipeptidyl aminopeptidase allosteric inhibitors by high throughput screening” (PLoS ONE, 2019).
Among all 110,000 compounds or so, about 230 (0.21%) showed an effect of 50% or more. The list shows a part of the results.

These compounds were tested against DPAP1 (Plasmodium falciparum, UniProt Q8IIJ9) (assay: primary screen, percent inhibition; read by cleavage of a fluorogenic dipeptide substrate; higher = more effect of the substance).
Chain of DPAP1 (Q8IIJ9 whole entry, looked up): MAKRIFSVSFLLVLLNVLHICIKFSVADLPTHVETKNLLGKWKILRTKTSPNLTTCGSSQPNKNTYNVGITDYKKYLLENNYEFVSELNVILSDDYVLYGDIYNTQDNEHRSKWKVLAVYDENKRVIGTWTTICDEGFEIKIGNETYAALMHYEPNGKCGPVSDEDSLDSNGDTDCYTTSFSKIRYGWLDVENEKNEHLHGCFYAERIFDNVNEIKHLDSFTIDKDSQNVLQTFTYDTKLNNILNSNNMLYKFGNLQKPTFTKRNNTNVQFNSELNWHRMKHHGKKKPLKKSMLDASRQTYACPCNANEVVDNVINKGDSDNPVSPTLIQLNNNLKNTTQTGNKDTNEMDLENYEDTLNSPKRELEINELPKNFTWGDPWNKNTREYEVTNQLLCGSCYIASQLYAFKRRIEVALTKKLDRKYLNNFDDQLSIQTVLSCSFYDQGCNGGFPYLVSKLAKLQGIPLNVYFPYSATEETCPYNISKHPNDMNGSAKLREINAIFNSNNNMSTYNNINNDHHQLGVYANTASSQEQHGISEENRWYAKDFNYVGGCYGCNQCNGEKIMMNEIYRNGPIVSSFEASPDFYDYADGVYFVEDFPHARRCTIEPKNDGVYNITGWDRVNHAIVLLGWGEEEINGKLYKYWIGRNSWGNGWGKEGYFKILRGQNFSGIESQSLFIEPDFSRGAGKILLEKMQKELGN
Design: species or system P. falciparum D10 trophozoite lysates; single well
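Further: 30 min substrate incubation versus DMSO and 10 µM JCP410 controls.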

First: Cc1ccc(S(=O)(=O)N(CC(=O)N(C)Cc2ccccc2)c2ccccc2C)cc1
Second: Cc1ccc(S(=O)(=O)NCC2COc3ccccc3O2)cc1 (stereo not shown)
The “% Inhibition @ 10 uM” value of the first is higher: 8.26% for the first, -0.641% for the second.

First: Cc1ccc(S(=O)(=O)N2CCN(Cc3ccccn3)CC2)cc1
Second: Cc1ccc(NC(=O)c2cccc(S(=O)(=O)N3CCCCC3)c2)cc1
The “% Inhibition @ 10 uM” value of the first is lower: -5.26% for the first, 7.62% for the second.

Compared with Cn1c(=O)c2c(nc(SCc3nnc(N)s3)n2Cc2ccccc2Cl)n(C)c1=O, C=CCNc1nc2c(c(=O)n(C)c(=O)n2C)n1Cc1ccc(F)cc1 is higher in “% Inhibition @ 10 uM” value: 5.17% for the first, 6.59% for the second.

First: CCOCCn1c(COc2ccc(OC)cc2)nc2ccccc21
Second: COc1ccc(OCC(=O)NCCc2ccccc2)cc1
The “% Inhibition @ 10 uM” value of the first is higher: 1.08% for the first, 0.488% for the second.

Compared with c1c2c(cc3c1OCO3)OCN(CC13CC4CC(CC(C4)C1)C3)C2, CC(C)(C)c1ccc(S(=O)(=O)N2CCC(Oc3ccc4c(c3)OCO4)CC2)cc1 is lower in “% Inhibition @ 10 uM” value: 2.93% for the first, 2.29% for the second.

Compared with Cc1ccc2oc(=O)c3cnn(CC(=O)N4CCc5ccccc5C4)c3c2c1, CN1CCN(C(=O)Cn2ncc3c4ccccc4n(Cc4ccccc4F)c3c2=O)CC1 is higher in “% Inhibition @ 10 uM” value: 1.62% for the first, 3.4% for the second.

Going from Cc1ccc(NS(=O)(=O)c2ccc(F)cc2)cc1C to Cc1ccc(C)c(S(=O)(=O)Nc2ccc3sc(C)nc3c2)c1, the “% Inhibition @ 10 uM” value falls from 0.526% to -6.74%.

Compared with CCOc1ccccc1CNC(=O)C(C)n1nc(C)c2c(C)n(-c3ccccc3)nc2c1=O (stereo not shown), CCN(CC)CCCNC(=O)CCCn1nc(C)c2c(C)n(-c3ccc(C)cc3)nc2c1=O is lower in “% Inhibition @ 10 uM” value: 5.46% for the first, -1.39% for the second.

Compared with Cc1c(C(=O)Nc2cccnc2Cl)sc2nc3n(c(=O)c12)CCCC3, Cc1cccn2c(=O)c3cc(C(=O)NCC4CCCO4)n(C)c3nc12 (stereo not shown) is higher in “% Inhibition @ 10 uM” value: -3.8% for the first, 0.522% for the second.

Compared with COc1cc(-c2cc(C(F)(F)F)n3ncc(C(=O)NCC4CCCO4)c3n2)cc(OC)c1OC (stereo not shown), CCc1cc(OC)c(OC)cc1C(C)NC(=O)c1ccc(OC)cc1 (stereo not shown) is lower in “% Inhibition @ 10 uM” value: 6.79% for the first, 0.13% for the second.

First: CCC(C)NS(=O)(=O)c1ccc(NC(=O)c2cccc(NC(=O)C(C)C)c2)cc1 (stereo not shown)
Second: CCc1ccccc1NC(=O)Nc1cccc(Cl)c1
The “% Inhibition @ 10 uM” value of the first is higher: -0.425% for the first, -1.38% for the second.

Compared with C/C=C/C(=O)NCC1OCCc2ccccc21 (stereo not shown), O=C1Cc2ccccc2C(c2ccccc2Cl)N1 (stereo not shown) is lower in “% Inhibition @ 10 uM” value: -4.74% for the first, -5.2% for the second.

Going from CC1Cc2cc(/C=C3\N=C(c4cccs4)OC3=O)ccc2O1 (stereo not shown) to COc1ccc(/C=C2/SC(N3CCOCC3)=NC2=O)cc1Br, the “% Inhibition @ 10 uM” value rises from -5.85% to 0.323%.

Compared with COc1ccc(NS(=O)(=O)c2ccc(NC(=S)NC(=O)/C=C/c3ccccc3)cc2)nn1, CC(=O)Nc1ccc(NC2=CC(=O)c3ccccc3C2=O)cc1 is lower in “% Inhibition @ 10 uM” value: 1.7% for the first, 1.54% for the second.

Going from CCN1CCCC1CNC(=O)c1ccc(-c2nc(CS(=O)(=O)c3ccc(C)cc3)c(C)o2)cc1 (stereo not shown) to O=C(O)c1ccccc1C(=O)Nc1ccc(S(=O)(=O)N2CCCCCC2)cc1, the “% Inhibition @ 10 uM” value rises from 1.48% to 3.8%.

Compared with CCCC1CCC(c2ccc(C(=O)NC(CCSC)C(=O)O)cc2)CC1 (stereo not shown), CCC[C@H](NC(=O)[C@@H](CC(C)C)NC(=O)c1ccc(N2CCN(C)CC2)cc1)C(=O)c1nnc(-c2ccco2)o1 is lower in “% Inhibition @ 10 uM” value: 16.5% for the first, 0.173% for the second.

Compared with CCN(CC)S(=O)(=O)c1ccc(N/C=C2/C(=O)NC(=O)N(c3ccccc3)C2=O)cc1, COc1ccc(N2C(=O)C(Cl)=C(Nc3ccc(F)cc3)C2=O)cc1 is lower in “% Inhibition @ 10 uM” value: 2.44% for the first, -0.318% for the second.

Compared with C=C(C)[C@@H]1CC=C(CN2CCCC(C(N)=O)C2)CC1 (stereo partly shown), CCN(CC)C(=O)C1CCCN(CC2CCCCC2)C1 (stereo not shown) is lower in “% Inhibition @ 10 uM” value: 3.48% for the first, -8.8% for the second.

First: O=C(CSc1ncccc1C(=O)O)c1ccccc1
Second: O=C(O)CCC(=O)Nc1cccc(C(=O)c2ccccc2)c1
The “% Inhibition @ 10 uM” value of the first is higher: 3.04% for the first, -0.553% for the second.

Going from Cc1c(C#N)c(O)nc(O)c1/C=N/c1ccc(S(=O)(=O)N2CCOCC2)cc1 to COc1ccc(-c2nn(C)c(=O)c3ccccc23)cc1CNC(=O)CN1CCOCC1, the “% Inhibition @ 10 uM” value rises from -5.96% to -3.13%.

First: Cc1ccc2c(CNCc3ccc(Cl)cc3)c(C(=O)O)[nH]c2c1
Second: Cc1cc(NC(=O)COc2ccc(Cl)cc2)ccc1Br
The “% Inhibition @ 10 uM” value of the first is lower: 1.8% for the first, 5.49% for the second.

First: CCS(=O)(=O)N1CCC2(CC1)OC(=O)C(C)=C2C(=O)N1CCC2(CC1)OCCO2
Second: CCOC(=O)c1cc(-c2ccc(F)cc2)n(CCC(=O)N2CCCCC2)c1C
The “% Inhibition @ 10 uM” value of the first is higher: -0.342% for the first, -3.64% for the second.

Compared with Cc1ccc2occ(CC(=O)N3CCC(Cc4ccccc4)CC3)c2c1, COc1ccc(C2NC(S)=NC(C)=C2C(=O)NCc2ccccc2)cc1 (stereo not shown) is lower in “% Inhibition @ 10 uM” value: -2.4% for the first, -8.57% for the second.

Compared with CCOc1ccc(-c2[nH]nc3c2C(c2ccncc2)C(C#N)=C(N)O3)cc1OC (stereo not shown), N#CC1=C(N)OC2=C(C(=O)c3ccccc3C2=O)C1c1cccc(C(F)(F)F)c1 (stereo not shown) is lower in “% Inhibition @ 10 uM” value: 0.503% for the first, -8.01% for the second.

First: COc1cccc(Cn2c(C)c(CNCCc3ccccc3Cl)c(C(=O)O)c2C)c1
Second: COc1ccc(C(=O)Nc2sc(Cc3ccccc3)cc2C(N)=O)cc1
The “% Inhibition @ 10 uM” value of the first is lower: -3.67% for the first, -0.116% for the second.

First: O=C(CCc1nnc2n(CCc3ccccc3)c(=O)c3ccccc3n12)NCC1CCCO1 (stereo not shown)
Second: COCCNC(=O)CCCc1nnc2n(CC(C)C)c(=O)c3sccc3n12
The “% Inhibition @ 10 uM” value of the first is lower: -2.42% for the first, -1.87% for the second.

Going from CC(C)N(C(=O)Nc1ccccc1)C(C)C to CC(=O)NC(c1ccccc1)c1cccnc1 (stereo not shown), the “% Inhibition @ 10 uM” value rises from 3.03% to 8.97%.

First: Cc1ccc2ncc(C(=O)c3ccc(C)c(C)c3)c(N3CCC(C(N)=O)CC3)c2c1
Second: CCOC(=O)c1ccc2ncc(C(=O)OCC)c(O)c2c1
The “% Inhibition @ 10 uM” value of the first is higher: 0.383% for the first, -3.69% for the second.

Compared with CC1CCCN(Cc2ccccc2[N+](=O)[O-])C1 (stereo not shown), O=C(/C=C/c1ccccc1)N1CCCCCC1 is higher in “% Inhibition @ 10 uM” value: -1.78% for the first, 3.1% for the second.

Going from COc1ccc(Nc2nc(Cl)nc(NCc3cccnc3)n2)cc1 to COc1ccc(CNC(=O)CN2C(=O)c3ccccc3S2(=O)=O)cc1, the “% Inhibition @ 10 uM” value rises from -1.44% to 0.475%.

Compared with CC(=O)NCCNC(=O)c1ccc(Cn2c(=O)[nH]c3ccsc3c2=O)cc1, COc1ccc(N2C(=O)c3ccc(C(=O)O)cc3C2=O)cc1NC(=O)c1ccccc1 is higher in “% Inhibition @ 10 uM” value: -6.5% for the first, 2.17% for the second.

First: COc1cccc2c(O)c(NC(=O)NCCCn3ccnc3)cnc12
Second: CCN(CC)CCNC(=O)c1cc(-c2cccnc2)nc2ccccc12
The “% Inhibition @ 10 uM” value of the first is lower: -3.08% for the first, -2.26% for the second.

Going from CCc1ccc(OCC(=O)NC(CC(=O)O)c2ccc(C(C)(C)C)cc2)cc1 (stereo not shown) to CC(NC(=O)c1ccccc1NC(=O)CCSc1ccccc1)c1ccccc1 (stereo not shown), the “% Inhibition @ 10 uM” value falls from -0.703% to -3.87%.

First: COc1cc(NCc2cc(F)ccc2F)cc(OC)c1
Second: COc1ccc2c(c1OC)C(=O)N(c1ccc(O)cc1)C2
The “% Inhibition @ 10 uM” value of the first is lower: -6.82% for the first, -1.15% for the second.

Compared with CCOc1ccccc1/C=C(\NC(=O)c1ccccc1)C(=O)N1CCCCCC1, O=C(O)C1CC=CCC1C(=O)NCc1cn(-c2ccccc2)nc1-c1ccccc1 (stereo not shown) is higher in “% Inhibition @ 10 uM” value: -1.06% for the first, 2.32% for the second.

First: CCOC(=O)C1=C(CN2CCN(c3ccccn3)CC2)NC(=O)NC1c1ccc(OC(C)C)cc1 (stereo not shown)
Second: COc1cc(C2C(=O)N(C3CCC(C)CC3)CC(=O)N2CCc2ccccc2)ccc1OC(C)C (stereo not shown)
The “% Inhibition @ 10 uM” value of the first is higher: 2.39% for the first, -2.26% for the second.

Compared with CCC[C@H](NC(=O)[C@H](C)NC(=O)[C@H](CCC(=O)OC(C)(C)C)NC(=O)[C@@H](NC(=O)OCc1ccccc1)C(C)CC)C(=O)c1nnc(-c2ccccc2)o1 (stereo partly shown), CCOC(=O)c1ccccc1NC(=O)CCN1C(=O)c2ccccc2C1=O is lower in “% Inhibition @ 10 uM” value: -1.7% for the first, -5.38% for the second.

Compared with CN(CCc1ccccn1)Cc1ccoc1, CCCCN(Cc1ccco1)S(=O)(=O)c1csc(C(N)=O)c1 is higher in “% Inhibition @ 10 uM” value: -0.636% for the first, 1.9% for the second.

First: CN(C)C(=O)c1ccc2c3c(cccc13)CC2
Second: Nc1cccc(C(=O)Nc2ccc(N)cc2N)c1
The “% Inhibition @ 10 uM” value of the first is higher: 2.79% for the first, 1.02% for the second.

Compared with C=CC(Oc1ccc(C=O)cc1)c1ccccc1 (stereo not shown), O=C(NCc1ccc(F)cc1)[C@@H](c1ccccc1)N1Cc2ccccc2C1=O is higher in “% Inhibition @ 10 uM” value: -4.91% for the first, -4.1% for the second.

Compared with Cc1ccc(C)n1-c1ccc(Cl)cc1, CCOC(=O)c1nnn(-c2cc(Cl)ccc2OC)c1C(=O)OCC is lower in “% Inhibition @ 10 uM” value: -3.53% for the first, -7.46% for the second.

Compared with c1ccc(/N=c2\scc(-c3ccccc3)n2Cc2cccnc2)cc1, COc1ccc(C2C3=C(NCCN=C3c3ccccc3)C(=O)N2c2ccccc2)cc1OC (stereo not shown) is lower in “% Inhibition @ 10 uM” value: 1.57% for the first, -10.4% for the second.

Going from CN(C)S(=O)(=O)N1C=Cc2ccccc2C1c1c[nH]c2ccccc12 (stereo not shown) to Cc1nc2ccccc2nc1S(=O)(=O)c1ccccc1, the “% Inhibition @ 10 uM” value falls from 6.5% to -0.99%.

Compared with CC(C)(C)NC(=O)c1oc2ccccc2c1NC(=O)C(C)(C)C, Cc1ccc2c(c1)cc1c(=O)n(CC(=O)NCCc3c[nH]c4ccccc34)nc(C)n12 is higher in “% Inhibition @ 10 uM” value: -0.528% for the first, 3.09% for the second.

Compared with CCOc1ccc(C2C3=C(O)CC(C)(C)CC3=NC3=C2C(=O)CC(C)(C)C3)cc1OC (stereo not shown), COc1ccc2ccccc2c1C1CC(=O)N2CN(Cc3ccco3)CSC2=C1C#N (stereo not shown) is higher in “% Inhibition @ 10 uM” value: 1.37% for the first, 31.2% for the second.

First: C=CCNc1nc2c(c(=O)[nH]c(=O)n2C)n1Cc1cccc(C)c1
Second: Cc1cc2c3c(c1)C(C)CC(C)(C)N3C(=O)C2=O (stereo not shown)
The “% Inhibition @ 10 uM” value of the first is lower: -7.23% for the first, 0.674% for the second.

Compared with O=S(=O)(c1c[nH]cn1)N1CCN(C(c2ccc(F)cc2)c2ccc(F)cc2)CC1, Cn1nc(Oc2nc(N3CCCCC3)nc(N3CCCCC3)n2)ccc1=O is higher in “% Inhibition @ 10 uM” value: -2.5% for the first, 0.628% for the second.

Compared with CCN(CCN(C)C)Cc1ccc(OC(F)(F)F)cc1, CC(C)CCNC(=O)c1csc2c1CCCC2 is higher in “% Inhibition @ 10 uM” value: -1.75% for the first, 6.59% for the second.

CCSc1nnc(NC(=O)CSc2nc3c(cc2C#N)CCCC3)s1 was tested, and the “% Inhibition @ 10 uM” value was -2.14%.
